Experimental data: PubChem BioAssay AID463173 (ICCB-Longwood Screening Facility, Harvard Medical School, 2010)
Hit rate of the full screen: of about 52,000 compounds, about 1,700 (3.3%) were called active. Cut-off read from the data, not from the text of the source: active = survival mostly below about 52% (no sharp cut-off); inactive = mostly above about 56%. Some of the results follow.

What follows are compounds tested on Wild type (assay: growth inhibition of S. aureus wild type versus tarO mutant, primary screen, teichoic acid synthesis inhibitors, RN4220, OD600 (AID 463173)). Settings: S. aureus RN4220 wild type/DeltatarO growth, OD600, 18 h, hits give low values, screened at 18.75 µg/mL (by protocol).

Row | Structure (SMILES) | survival
1 | Cc1ccc(-n2c(=O)[nH]c3sc4c(c3c2=O)CCCC4)cc1 | inactive: 126%
2 | O=S(=O)(c1ccc(Cl)cc1)c1nnn2c1nc(NCc1ccccc1)c1sccc12 | inactive: 85%
3 | CC(=O)N(Cc1cccnc1)c1nc2cc(C)cc(C)c2s1 | inactive: 76%
4 | CC(=O)Nc1ccccc1-c1nc2ccccc2n(C(C)C(=O)Nc2cccc(C)c2C)c1=O (centres undefined) | inactive: 112%
5 | CCc1ccc(C(=O)c2cn(CC(=O)Nc3cccc(C)c3C)c3nc(C)ccc3c2=O)cc1 | inactive: 140%
6 | COc1cc(OC)c(NC(=O)CN(C)S(=O)(=O)c2ccc3c(c2)CCCC(=O)N3)cc1Cl | active: 1%
7 | COc1ccc(Cl)cc1NC(=O)CN1C(=O)CSc2ccc(S(=O)(=O)N3CCCC3)cc21 | inactive: 105%
8 | COc1ccccc1C(=O)N(Cc1ccco1)Cc1ccccc1F | inactive: 85%
9 | Cc1cc(NC(=O)c2ccco2)cc(-c2nc3cc(Cl)ccc3o2)c1O | inactive: 101%
10 | CCCCN(CC)C(=O)C1CCC(CNS(=O)(=O)c2cccc3nsnc23)CC1 (centres undefined) | inactive: 97%
11 | CCC(C(=O)N(C)Cc1ccccc1)n1nc(C)c2sc3ccccc3c2c1=O (centres undefined) | inactive: 80%
12 | Cc1cccc(NC(=O)CSc2nc(C)c(Cc3ccccc3)c(=O)[nH]2)c1C | inactive: 84%
13 | Cc1ccc(CNC(=O)c2cc(Sc3ccc(F)cc3F)nc3ccccc23)cc1 | inactive: 94%
14 | COc1ccc(CNC(=O)CCc2c(C)nn(-c3ccc(N4CCOCC4)nn3)c2C)cc1 | inactive: 124%
15 | CN(C)C(=O)CSc1nnc(-c2ccncc2)n1C | inactive: 110%
16 | COc1ccc(CCNC(=O)C2=C(C)C(=O)OC23CCCCC3)c(OC)c1 | inactive: 83%
17 | CCOC(=O)c1ccc(CN(Cc2ccc(F)cc2)S(=O)(=O)c2cc(C(=O)Nc3ccccc3CC)ccc2F)cc1 | inactive: 131%
18 | CC(=O)N1CCCC1c1nc2ccccc2n1Cc1cc(C)ccc1C (centres undefined) | inactive: 110%
19 | CCOC(=O)N1CCN(S(=O)(=O)N2CCCC(C(=O)NCc3ccccc3OC)C2)CC1 (centres undefined) | inactive: 55%
20 | Cc1ccc2ccc3cc(C(=O)Nc4ccc(C)c(F)c4)nc3c2[nH]1 | inactive: 78%
21 | COc1ccc(NC(=O)C2CCCN(S(=O)(=O)c3ccc4[nH]c(=O)ccc4c3)C2)cc1OC (centres undefined) | inactive: 91%
22 | CCOc1cc(CNCCSc2nnnn2C)cc(Cl)c1OCc1ccc(Cl)cc1 | active: -2%
23 | Cn1c(=O)n(C)c2cc(N3CCOCC3)c(NS(=O)(=O)c3ccc(Br)cc3)cc21 | inactive: 82%

Row | Structure (SMILES) | survival
24 | Cc1cccc(N2CCN(C(=O)CCCn3ncn4c(cc5occc54)c3=O)CC2)c1C | inactive: 77%
25 | COc1ccc(-c2cc(C(=O)NCCc3ccccc3)c3c(-c4ccccc4)[nH]nc3n2)cc1 | inactive: 68%
26 | O=C(Cc1ccc(F)cc1)Nc1cccc(-c2nc3cccnc3s2)c1 | inactive: 88%
27 | O=C(NCC(c1cccnc1)N1CCc2ccccc2C1)C(=O)Nc1cccc(Cl)c1 (centres undefined) | inactive: 47%
28 | CCC1SC(=NC(=O)c2cccs2)NC1=O (centres undefined) | inactive: 110%
29 | Cc1ccc(CCNS(=O)(=O)c2ccc3c(c2)CCN3C(=O)CCC(=O)O)cc1 | inactive: 133%
30 | CCc1ccc(NC(=O)CCc2c(C)n(C)c3cc(-c4ccccc4C)nn3c2=O)cc1 | inactive: 47%
31 | Cc1ccccc1C(=O)N1CCCCC1CCN1CCCCC1 (centres undefined) | inactive: 86%
32 | COc1ccc(N2CCN(C(=O)CCc3c(C)nc4cc(-c5cccc(F)c5)nn4c3C)CC2)cc1 | inactive: 71%
33 | CC(=O)N1CCc2c(sc3c2c(=O)n(-c2ccccc2)c(=O)n3Cc2cccc(C(F)(F)F)c2)C1 | inactive: 137%
34 | Cc1ccc(/C=C/c2nc3ccccc3n2S(=O)(=O)c2ccc(Br)cc2)cc1 | inactive: 70%
35 | O=C(CSc1nnc(-c2ccco2)o1)NC(c1ccccc1)c1ccccc1 | inactive: 111%
36 | O=C(NC1CCCCC1)N1CCN(c2ccccn2)CC1 | inactive: 112%
37 | CCOC(=O)c1cnc2c(ccc3ccccc32)c1Nc1ccc(OC)cc1OC | active: 6%
38 | COc1cccc(N=C2SC(C(=O)Nc3cccc(Cl)c3)CC(=O)N2C)c1 (centres undefined) | inactive: 66%
39 | COc1ccc(C(=O)c2c(N)c(-c3nc(-c4ccccc4)cs3)c3ccccn23)cc1 | inactive: 71%
40 | CCc1nn(CC(=O)NCCCN2CCN(C)CC2)c(=O)c2cc3occc3n12 | inactive: 125%
41 | CSc1ncc(C(=O)N2CCN(c3ccc(Cl)cc3)CC2)c(C)n1 | inactive: 124%
42 | COc1ccc(C)cc1NC(=O)c1oc2ccc(S(=O)(=O)N3CCOCC3)cc2c1C | inactive: 97%
43 | COC(=O)c1c(NC(=O)COc2ccc(Cl)cc2C)sc2c1CCCCC2 | inactive: 83%
44 | COc1ccc(OC)c(NC(=O)CSC2=Nc3ccccc3C3=NC(CCC(=O)NC4CCCCC4)C(=O)N23)c1 (centres undefined) | inactive: 60%
45 | CSc1cccc(NC(=O)CC(c2ccc(F)cc2)N2Cc3ccccc3C2=O)c1 (centres undefined) | inactive: 69%
46 | Cc1nc2nc(C)c(CCC(=O)NCc3cccc(Cl)c3)c(C)n2n1 | inactive: 75%

Row | Structure (SMILES) | survival
47 | O=C(Cn1c(=O)n(Cc2ccco2)c(=O)c2sc3ccccc3c21)Nc1ccccc1C(F)(F)F | inactive: 78%
48 | CCOc1ccccc1NC(=O)c1ccc(C(=O)Nc2ccccc2OCC)cc1 | inactive: 68%
49 | CC1CCN(S(=O)(=O)N(C)C)CC1 | inactive: 112%
50 | COc1ccc(C2=C(C(C)=O)Sc3nnc(-c4ccccc4)n3N2C(C)=O)cc1 | inactive: 76%
51 | CC(=O)NCCNC(=O)c1ccc2c(=O)n(CCc3ccccc3)c(=O)[nH]c2c1 | inactive: 92%
52 | Cc1ccc(-n2nc(C)c3c(C)c(CCC(=O)NCc4ccccc4Cl)c(C)nc32)cc1 | inactive: 82%
53 | Fc1ccc(Cc2cn3cc(-c4ccc(F)cc4)nc3s2)cc1 | inactive: 70%
54 | COc1cc(NC(=O)c2cc3cc4cc(OC)ccc4nc3o2)cc(OC)c1 | inactive: 70%
55 | Cc1ccc2[nH]c(=O)c(C(c3nnnn3C3CCCC3)N(C)C3CCCCC3)cc2c1 (centres undefined) | inactive: 130%
56 | CCOc1cc(C2NC(=O)c3c(sc4c3CCN(C)C4)N2)ccc1OC(=O)c1ccc(F)cc1 (centres undefined) | inactive: 68%
57 | O=C(Nc1ccc(F)cc1F)c1cc(-c2ccc3c(c2)OCO3)on1 | inactive: 85%
58 | Cc1ccc(CCNC(=O)c2ccc(CSc3nc4ccncc4n3Cc3ccc(F)cc3)cc2)cc1 | inactive: 139%
59 | Cc1ccc(-n2nc(CO)c(C(=O)NC(C)c3ccccc3)n2)cc1C (centres undefined) | inactive: 84%
60 | COC(=O)c1sc2ccccc2c1S(=O)(=O)N1CCN(c2ccc(C(C)=O)cc2)CC1 | inactive: 73%
61 | CCC(C(=O)NCCc1ccc(SC)cc1)n1nc(C)c2c(C)n(-c3ccc(C)cc3)nc2c1=O (centres undefined) | inactive: 77%
62 | COc1cc(C2CC(=O)N(CC(=O)Nc3ccccc3F)c3ccccc3S2)cc(OC)c1OC (centres undefined) | inactive: 83%
63 | CC(=O)c1cc(-c2ccc(F)cc2)n(CCC(=O)NC2CCCCC2)c1C | inactive: 95%
64 | Cc1cccc(OCC(=O)Nc2cccc(-c3nc4ccccc4s3)c2)c1 | active: 5%
65 | COC(=O)c1ccccc1NC(=O)CCc1c(C)nc2cc(-c3ccc(Cl)cc3)nn2c1C | inactive: 69%
66 | CC(C)CNc1cc(NC2CCCCC2)c2c3c(onc13)-c1ccccc1C2=O | inactive: 95%
67 | Cc1ccc(Cl)cc1N1CCN(C(=O)c2cn(C)c3ccc(S(=O)(=O)N4CCCCC4)cc3c2=O)CC1 | inactive: 77%
68 | CC1(C)CC2CC(C)(CN2C(=O)Nc2ccccc2)C1 (centres undefined) | inactive: 102%
69 | COc1cccc(CNCc2c(C(=O)O)c(C)n(Cc3ccc(F)cc3Cl)c2C)c1OC | inactive: 90%

Row | Structure (SMILES) | survival
70 | O=C(Nc1ccc(F)c(F)c1)c1ccc(F)c(S(=O)(=O)N2CCC3(CC2)OCCO3)c1 | inactive: 76%
71 | O=C(CC1N=C2c3ccccc3N=C(SCc3cccc(F)c3)N2C1=O)NC1CCCCC1 (centres undefined) | inactive: 92%
72 | CCSc1nc2sc3c(c2c(=O)n1-c1ccc(C)cc1)CCCC3 | active: 0%
73 | O=C(NC1CCCCC1)C(c1cccs1)N(Cc1ccco1)C(=O)C1COc2ccccc2O1 (centres undefined) | inactive: 114%
74 | CSc1ccc(CCNC(=O)CCc2c(C)nc3c4cccnc4nn3c2C)cc1 | inactive: 82%
75 | CC(C(=O)O)N1CCCCC1 (centres undefined) | inactive: 106%
76 | CCn1c(=O)n(CC2CCC(C(=O)NC(C)C)CC2)c(=O)c2sccc21 (centres undefined) | inactive: 77%
77 | COc1ccc2cc3c(N)nn(C(=O)c4ccc(F)cc4Cl)c3nc2c1 | inactive: 81%
78 | COc1ccc(NC(=O)CSc2c(C(C)C)cnc3c2c(=O)n(C)c(=O)n3C)c(OC)c1 | inactive: 80%
79 | Cc1cc(NC(=O)CN2CCC(O)CC2)nc2c1c(=O)oc1ccccc12 | inactive: 72%
80 | COc1ccc(C(=O)NCC(c2ccc3c(c2)OCO3)N2CCN(C)CC2)cc1OC (centres undefined) | inactive: 128%
81 | CCOC(=O)c1cc(CC)sc1NC(=O)COc1ccccc1C | inactive: 119%
82 | CCN1CCN(c2ncnc3c2cnn3-c2ccc(F)cc2)CC1 | inactive: 56%
83 | CCOc1ccc(-n2c(SCC(=O)c3ccccc3)nc3c([nH]c4ccccc43)c2=O)cc1 | inactive: 129%
84 | O=C(Nc1ccc(Cl)cc1)C1COc2ccccc2O1 (centres undefined) | inactive: 114%
85 | COc1ccc(CC(=O)Nc2ccc(-c3nc4ccccc4s3)c(C)c2)cc1 | inactive: 69%
86 | COc1ccc(NC(=O)c2ccc3oc(=O)c(S(=O)(=O)c4ccc(F)cc4)cc3c2)c(OC)c1 | inactive: 71%
87 | CC(C)c1nc2sc3c(N4CCCCC4)ncnc3c2c2c1CCCC2 | inactive: 71%
88 | COC(=O)c1ccc(CSc2nc3ccncc3n2Cc2ccc(F)cc2)cc1 | inactive: 87%
89 | CC1=CC(C)(C)N(CC(=O)c2ccccc2)c2ccc(C)cc21 | inactive: 109%
